Test results reported in PubChem BioAssay AID272 (DTP/NCI, 2004).
Results filed as inconclusive are left out. For part of its entries the source gives two or more results. The other results are left out here. The source may hold further records. Values that stand side by side differ, and nothing given here explains why; they may come from other doses, times, organisms or constructs than stated.

Tested on: Lewis lung carcinoma i.m., BDF1 mice, T/C %
Test: NCI In Vivo Anticancer Drug Screen. Data for tumor model Lewis Lung Carcinoma (intramuscular) in B6D2F1 (BDF1) mice
Experimental: The antitumor activity of compounds was measured in mice bearing transplantable tumors. Survival or tumor size were measured and the results are expressed as the measurement made in the treated group (T) divided by the measurement made in the vehicle treated control group (C). The tumor model used in this assay is Lewis Lung Carcinoma (intramuscular) in B6D2F1 (BDF1) mice

Cc1c(N)nc([C@H](CC(N)=O)NC[C@H](N)C(N)=O)nc1C(=O)N[C@H](C(=O)N[C@H](C)[C@@H](O)[C@H](C)C(=O)N[C@H](C(=O)NCCc1nc(-c2nc(C(=O)NCCC[S+](C)C)cs2)cs1)[C@@H](C)O)C(OC1OC(CO)C(O)C(O)C1OC1OC(CO)C(O)C(OC(N)=O)C1O)c1cnc[nH]1 (stereo partly specified)
T/C (endpoint: mean tumor weight (est.), dose: 1.8 mg/kg/injection, schedule: Q01DX009 (ip), vehicle: saline, higher = larger tumour): 40 % of control and 80 % of control
T/C (endpoint: mean tumor weight (est.), dose: 3.0 mg/kg/injection, schedule: Q01DX009 (ip), vehicle: saline, higher = larger tumour): 35 % of control and 82 % of control
T/C (endpoint: mean tumor weight (est.), dose: 5.0 mg/kg/injection, schedule: Q01DX009 (ip), vehicle: saline, higher = larger tumour): 19 % of control, 31 % of control, 58 % of control

CCc1nc(N)nc(N)c1-c1ccc(Cl)cc1
T/C (endpoint: mean tumor weight, dose: 4.0 mg/kg/injection, schedule: Q06HX008 (ip), vehicle: Klucel (hydroxypropylcellulose) (HPC), higher = larger tumour): 52 % of control and 80 % of control
T/C (endpoint: mean tumor weight, dose: 16.0 mg/kg/injection, schedule: Q08DX002 (ip), vehicle: Klucel (hydroxypropylcellulose) (HPC), higher = larger tumour): 55 % of control and 100 % of control
T/C (endpoint: mean tumor weight, dose: 32.0 mg/kg/injection, schedule: Q01DX009 (ip), vehicle: Klucel (hydroxypropylcellulose) (HPC), higher = larger tumour): 66 % of control and 98 % of control

OC(CBr)C(O)C(O)C(O)CBr (stereo unspecified)
T/C (endpoint: median survival time, dose: 100.0 mg/kg/injection, schedule: Q01DX011 (ip), vehicle: Klucel (hydroxypropylcellulose) (HPC), higher = longer survival): 109 % of control and 161 % of control

O=C1N[C@@H]([C@H]2CC[C@H](Cl)CN2)C(=O)N[C@H]1[C@H]1CC[C@H](Cl)CN1
T/C (endpoint: median survival time, dose: 2.0 mg/kg/injection, schedule: Q01DX011 (ip), vehicle: saline, higher = longer survival): 120 % of control and 157 % of control

Clc1ncnc2nc[nH]c12
T/C (endpoint: median survival time, dose: 12.5 mg/kg/injection, schedule: Q01DX011 (ip), vehicle: other, higher = longer survival): 94 % of control and 151 % of control

O=NN(CCCl)C(=O)NCCCl
T/C (endpoint: median survival time, dose: 14.0 mg/kg/injection, schedule: Q## X002 (ip), vehicle: saline, higher = longer survival): 104 % of control and 192 % of control
T/C (endpoint: median survival time, dose: 23.0 mg/kg/injection, schedule: Q## X002 (ip), vehicle: saline, higher = longer survival): 118 % of control and 181 % of control
